Sequences with one replicate were seen in a single cluster, so their values are uncertain.
system: ATP; assay: switch fluorescence ratio, 500 uM ATP over buffer (Cy3 cluster intensity, sum of 5 cycles each) (fold (ratio)); higher = stronger signal-on switching upon ATP binding; sequences stand for … in TCGTCGGCAGCGTCAGATGTGTATAAGAGACAGTTTTTTTTTTTTTTTTTTTTTTTTT…TC; conditions: aptamer strand: ATP DNA aptamer (quencher-CACCTGGGGGAGTATTGCGGAGGAAGG + anchor), 100 nM annealed; ATP concentration: 500 uM; one replicate
Method in brief: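 Exposure to 500 uM ATP lasted 15 min at 22 °C before imaging, and a selection-buffer image was taken beforehand, for Cy3-labelled switching-strand clusters on a modified Illumina MiSeq flow-cell annealed to 100 nM quencher-labelled ATP aptamer. Five buffer/ATP cycles were run with NaOH stripping and re-annealing between them. The fluorescence ratio per cluster is summed target-cycle over summed buffer-cycle Cy3 intensity, averaged per switch-domain sequence. Clusters outside 100-1000 RFU were excluded.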

Sequence	switch fluorescence ratio
TTTAGTACTA	0.957
GTTGAAAACC	1.01
GGTCCGTAAG	1.09
TAACCGTCTG	1.02
AGGAGTAGAG	0.984
TAAGTCTAAA	1
TGCCCGGTCA	1.02
TGGTTTGCTC	0.967
CGGGATGGGA	1.03
ACACAGTCGA	0.992
TTCCCCAGCG	3.72
AGGTCCACGT	0.889
ATTGATGTAT	1
ACCGGCGGTC	1
TTATATTGG	0.976
GGCTACGGCA	1.04
TAGCGTTCAC	0.999
CTAGAGGGAC	1.05
GTGCAATCTA	1.24
ATAGGTTTGA	0.974
ACACGCTATA	1.54
GTGAGTTTCG	1
TTGACTACTA	1.11
AGGAATGTCT	0.937
AGACTAGGAC	1.03
ATCGTCTCTC	0.984

Sequence	switch fluorescence ratio
CGTTACGGC	0.989
ATGGTGTCAA	0.997
ACATGCCAT	0.972
TACAGAGACT	1.03
TGGCTTAGG	0.941
TATGGGCGCA	1.07
CTCGTCTACT	1.08
TTTTACTG	0.904
TGCGTTATGG	0.992
TCCTCCGGGG	1.2
GTGACTGTGC	1.13
CAGGAAAAAT	1.04
TATATCTATT	1.04
GTGTTCCCGG	0.992
CGATAGTAAT	1.17
ATCACACATG	0.988
GCGACCGTC	1.04
GAAGCTTCGT	1.02
AATTGTTGTA	1.03
GTGTCCAGTA	1.02
ATCCCGGTTA	1.02
GAACGTTTTT	0.991
AAATTAGTC	0.939
TTGATGTCAT	0.989
ATCCTGGCCC	1.08
GGACGAGACT	1.1

Sequence	switch fluorescence ratio
ACAGCACGGA	1.23
TTGACTATCT	0.98
TAGGCCTGAG	1.03
CAGGAATCGT	0.996
TAAGGGACTT	0.997
GTGTTTGATT	0.992
GTGGGGAGCA	0.95
TGAAATTATT	0.991
ACTTCGCCGG	1.11
AGCAGTAAA	0.974
GTCGACGTGT	0.963
GCTGGGGAT	0.989
GCTCGTAATT	1.09
GGTGTAATGC	1.2
TGCGGTTCTG	1.04
TTCGGTACTA	1.02
ACTTACCCCA	1.22
AGCGTTACTT	1.15
TTGGGAATGG	2.4
TCCTTTTAA	0.981
GTGGTTGGTC	1
TAGGCGTGCA	1.04
GGGAGGCTAA	1.04
ATACGGCAAG	1.06
AAAGAAGCCT	1.16
TGCACCTGCA	1

Sequence	switch fluorescence ratio
TAGTGTGTG	0.994
GGAGTTGCGT	0.968
TCAGTAACGG	0.99
GAGGACAGTT	0.969
TCTTCTGGGG	1.09
TATGAGGCGT	1.02
TTCGGATCGC	1.04
GGTGAGCGCA	0.988
GGCTAAACGA	1.04
ACATACTTGG	1.23
ACTTTGTGAT	0.974
GTCTCAGGTA	1.03
TGTGTGGTG	0.961
AGAATCGCGG	1.01
TAATCACGGA	1.03
TTAGCCGTAG	0.988
CTTCGGTTCA	1.03
CGTGATTA	0.994
CAAAGTTAG	1.05
TATACCTACG	1.4
ATAGGGGTG	1.1
TGGACCTTGC	1.9
TAGCTTAATT	1.04
GGTCCGTACT	1.05
GGATTTAACG	1.02
CCCTACTGGA	1.13

Sequence	switch fluorescence ratio
GCGTCATAGC	0.99
GAATTTGGCG	1.01
GTGCAGTCTG	1.01
TTTGTTCTTA	0.968
GTCGAAATAA	1.02
AGCTGGATGG	0.978
CCGGACGATT	1.1
GCGCCCGTCA	1.04
ACTAGCTTTG	0.98
CTAGTCTCCC	1.05
ATCTTATTCT	0.998
GACTCTGACT	0.986
AGCCTCAACG	1.03
GACGGTTTGG	1.05
CGGTCACGAT	1.03
TTAATTCTAA	1.02
GACTGATGGA	1.02
CTCGGGAGAC	1.59
TTACCTAAAT	1.04
CATATAGCCG	0.922
GTCTTTGTCT	0.977
TGACTAGGAG	0.986
GACTCCCAAG	1.11
TACAAGCTTG	0.997
CTAACGTAAA	1.11
GTCACTAGAC	1.06

Sequence	switch fluorescence ratio
TTCGTTGAGA	1.01
GCCGAACAAA	0.985
GCCTCTATTA	0.995
TCGGAGTTT	0.978
AGATGCGAAT	0.935
GATGATAGGG	1.03
ATACAGGAGT	1
AAATCTGATT	1.03
CTTCGTTCGT	1.14
TAGAGGTAG	0.949
TCTTTCCCCT	1.2
ATAGGACTCC	1.09
CCTGTAGCTG	1.36
TCCTGAGAAA	1.06
GCCACAAAGA	1.01
TTATCACTG	1.04
CAGTATTAAA	1.02
ACTACATGCC	1.1
ATCGTGAAGA	0.998
AGCGTGTGGG	1.02
TGGAGAATTG	0.991
GCTATGTGTG	0.963
TTGGGAAAC	0.992
TTGTACAGCA	1.01
GGGTGTAAGA	1.02
ATATCCGGTG	1.04

Sequence	switch fluorescence ratio
CGTGTATCG	0.963
TTTCAAACAT	1.05
CAAGGTAACA	0.989
GAGTCCTTAA	1.03
AGGTCGAAGG	1
AACTCGATGG	0.957
CCTGAGTCCG	1.79
ACCCTTAGCT	1.05
CAATTAAAAG	0.972
CGTGGATGGA	0.974
AATCGCGTA	1.01
ATGTTTCGAC	1.02
ACGACCTACT	1.58
CGGTAAATTG	0.997
TTGGTTTTGG	0.979
ACGCCAATAA	5.62
CACAACTCAA	1.02
AAAGGATCAT	1.01
ATTGTCAAAA	0.99
TACGCCCCTT	1.72
GGGTACTTAC	1.3
GTTTGGCAGG	0.984
AGGTAGGACC	1.06
GTGGTAAGAA	0.96
GTGGCCCCAT	0.982
GCGAGGTCTT	0.959

Sequence	switch fluorescence ratio
TAGTGCGCAG	1.02
CCAGAAGGGA	1.01
CCATAGGAGA	1.03
AGGGATGA	1
CTAGAATGAA	1.02
GTGAGTACGG	1.03
TGTTCCTGTG	1.01
CCGCGAAGGC	2.14
AGGGTTGGT	1.01
TACATTATTA	1.01
GAGAATGGAT	1.02
GACTGCTGCG	1
CTGCTTTTGG	0.972
TTTCTGCT	0.996
TCGCCGTAG	1.02
TCTACAATAT	1.09
TTTGTCGCAG	0.972
TGATAAGTTT	0.966
TCATGTTGCC	1.01

Source: the supplement of paper PMC10126150
